Measurements reported in patent US20250214977A1, “STAT6 INHIBITORS AND USES THEREOF” (Kymera Therapeutics, Inc., priority 2024, published 2025).

Target: T1, biotinylated truncated STAT6 (123-632)-avi (Homo sapiens, UniProt P42226)
T1 sequence (P42226 123-632 limits assumed): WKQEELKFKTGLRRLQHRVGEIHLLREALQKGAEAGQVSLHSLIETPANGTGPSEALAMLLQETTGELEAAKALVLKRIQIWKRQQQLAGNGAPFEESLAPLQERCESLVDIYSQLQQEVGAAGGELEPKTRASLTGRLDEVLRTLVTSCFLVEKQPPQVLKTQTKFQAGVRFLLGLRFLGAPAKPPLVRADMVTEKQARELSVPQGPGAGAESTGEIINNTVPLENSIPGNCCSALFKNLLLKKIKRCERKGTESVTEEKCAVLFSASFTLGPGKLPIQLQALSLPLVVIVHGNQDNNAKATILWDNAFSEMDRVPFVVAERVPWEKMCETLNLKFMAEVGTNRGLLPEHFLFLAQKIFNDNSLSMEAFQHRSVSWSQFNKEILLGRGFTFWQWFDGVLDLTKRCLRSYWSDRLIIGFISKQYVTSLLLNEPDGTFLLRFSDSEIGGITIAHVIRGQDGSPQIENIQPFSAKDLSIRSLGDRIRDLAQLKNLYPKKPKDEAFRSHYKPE
Experiment: Homogenous Time-Resolved Fluorescence (HTRF) binding assay
Conditions: 0.15 nM biotinylated truncated STAT6 (123-632)-avi, 20 nM fluorescein-labeled probe

Structure (SMILES)	IC50 (30 minutes room temperature)	IC50 (30 minutes at room temperature)
COc1cc(F)cc(Nc2cc(C3=CCCN(C(=O)CCn4ccnn4)C3)cc3cc(C(=O)N(C)C)oc23)c1 [Example I-1517]	100 to 1000 nM	–
CC(=O)NCc1ccc(CC(=O)N2CCC=C(c3ccc4oc(C(=O)N(C)C)cc4c3)C2)cc1 [Example I-252]	–	1000 to 10000 nM
COc1ccccc1-c1cc(C2=CCCN(C(=O)CCn3ccnn3)C2)c(F)c2[nH]c(C(=O)N3CCN(c4ncc(N(C)C)cc4OC)CC3)cc12 [Example I-416]	–	< 100 nM
CCn1nccc1-c1cc(C2=CCCN(C(=O)CCn3ccnn3)C2)c(F)c2[nH]c(C(=O)N3CCN(c4ncccc4OC)CC3)cc12 [Example I-582]	–	< 100 nM
O=C(CCn1ccnn1)N1CCC=C(c2ccc3occc3c2)C1 [Example I-278]	–	10000 to 100000 nM
COC(=O)CCC#Cc1cccc2c1CC(C(=O)N1CCC=C(c3ccc4oc(C(=O)N(C)C)cc4c3)C1)N(C=O)C2 (centres unmarked) [Example I-802, Methyl 5-(3-(5-(2-(dimethylcarbamoyl)benzofuran-5-yl)-1,2,3,6-tetrahydropyridine-1-carbonyl)-2-formyl-1,2,3,4-tetrahydroisoquinolin-5-yl)pent-4-ynoate]	–	100 to 1000 nM
COc1ccccc1-c1cc(C2=CCCN(C(=O)CCn3cccn3)C2)c(F)c2[nH]c(C(=O)N3CCN(c4ncc(F)cc4OC)CC3)cc12 [Example I-687]	–	< 100 nM
CCc1ccncc1-c1cc(C2=CCCN(C(=O)C(C)(C)C(=O)O)C2)c(F)c2[nH]c(C(=O)N3CCN(c4ncc(F)cc4OC)CC3)cc12 [Example I-1344]	1000 to 10000 nM	–
COc1ccccc1-c1cc(C2=CCCN(C(=O)CCn3ccnn3)C2)c(F)c2[nH]c(C(=O)N3CCc4cccc(OC)c4C3)cc12 [Example I-901]	–	< 100 nM
CN(C)C(=O)c1cc2ccc(C3=CCCN(C(=O)Cc4cccnc4O)C3)cc2[nH]1 [Example I-257]	–	10000 to 100000 nM
COc1ccc(CC(=O)N2CCC=C(c3ccc4oc(C(=O)N(C)C)cc4c3)C2)cc1C#N [Example I-256]	–	10000 to 100000 nM
CC(=O)N1CCC=C(c2cc(-c3cc4ccccc4n3C)c3cc(C(=O)N(C)C)[nH]c3c2F)C1 [Example I-1580]	100 to 1000 nM	–
COc1cc(Cl)cnc1N1CCN(C(=O)c2cc3c(-c4cccnc4OC)cc(C4=CCCN(C(=O)CCn5ccnn5)C4)c(F)c3[nH]2)CC1 [Example I-460]	–	< 100 nM
COC(=O)C1CCC(c2ccc3oc(C(=O)N(C)C)cc3c2)CN1C(=O)CCn1ccnn1 (mixture of isomers) [Example I-1]	–	> 100000 nM
CN(C)C(=O)c1cc2cc(C3=CCCN(C(=O)CN4CCc5ccccc5C4)C3)ccc2o1 [Example I-296]	–	10000 to 100000 nM
CN(C)C(=O)c1cc2cc(C3=CCCN(C(=O)CCn4ccnn4)C3)ncc2[nH]1 [Example I-224]	–	100 to 1000 nM
COc1ccccc1-c1cc(C2=CCCN(C(=O)CCn3ccnn3)C2)c(F)c2[nH]c(C(=O)N3CCN(c4nc(N5CCOCC5)c5sccc5n4)CC3)cc12 [Example I-1446]	< 100 nM	–
COc1cccnc1-c1cc(C2=CCCN(C(=O)CCn3ccnn3)C2)cc2[nH]c(C(=O)N(C)C)cc12 [Example I-1647]	< 100 nM	–
COc1ccccc1-c1cc(C(=O)N2Cc3cnn(C)c3C2)cc2cc(C3=CCCN(C(=O)CCn4ccnn4)C3)n(CC3CC3)c12 [Example I-736]	–	< 100 nM

Structure (SMILES)	IC50 (30 minutes room temperature)	IC50 (30 minutes at room temperature)
COC(=O)C1CCC(c2ccc3oc(C(=O)N(C)C)cc3c2)CN1C(=O)CCn1ccnn1 (mixture of isomers) [Example I-2]	–	> 100000 nM
COc1cc(F)cnc1N1CCN(C(=O)c2cc3c(-c4cnn(C5CC5)c4)cc(C4=CCCN(C(=O)CCn5ccnn5)C4)c(F)c3[nH]2)CC1 [Example I-1151]	–	< 100 nM
CN(C)C(=O)c1cc2cc(C3=CCCN(C(=O)[C@H]4Cc5ccc(O)cc5CN4)C3)ccc2o1 [Example I-239]	–	10000 to 100000 nM
CC(=O)N1CCC=C(c2cc(-c3ccc4c(c3)NC(=O)C4)c3cc(C(=O)N(C)C)[nH]c3c2F)C1 [Example I-1509]	100 to 1000 nM	–
COc1ccccc1-c1cc(C2=CCCN(C(=O)CCn3ccnn3)C2)c(F)c2[nH]c(C(=O)N3CCN(c4cccc5cncn45)CC3)cc12 [Example I-936]	–	< 100 nM
COc1ccccc1-c1cc(C2=CCCN(C(=O)CCn3ccnn3)C2)c(F)c2[nH]c(C(=O)NC3(C#N)CC3)cc12 [Example I-1403]	< 100 nM	–
CN(C)C(=O)c1cc2cc(C3=CCCN(C(=O)CCc4cccnn4)C3)ccc2o1 [Example I-220]	–	100 to 1000 nM
COc1ccccc1-c1cc(C2=CCCN(C(=O)CCn3ccnn3)C2)c(F)c2[nH]c(C(=O)N3CCN(c4cc(C)cc(Br)c4OC)CC3)cc12 [Example I-964]	–	100 to 1000 nM
COc1ccccc1-c1cc(C2=CCCN(C(=O)CCn3cccn3)C2)c(F)c2[nH]c(C(=O)N3CCN(c4ncccc4OC4CC4)CC3)cc12 [Example I-345]	–	< 100 nM
COc1ccccc1-c1cc(C2=CCCN(C(=O)CCn3ccnn3)C2)c(F)c2[nH]c(C(=O)N3CCC(c4nnc(-c5ccccc5)o4)CC3)cc12 [Example I-1539]	100 to 1000 nM	–
CCC1CN(C)CCC1c1cc(C2=CCCN(C(=O)CCn3ccnn3)C2)c(F)c2[nH]c(C(=O)N3CCN(c4ncc(F)cc4OC)CC3)cc12 (centres unmarked) [Example I-781]	–	< 100 nM
COc1cccnc1N1CCN(C(=O)c2cc3c(-c4ccc(OC)c5c4OCCO5)cc(C4=CCCN(C(=O)CCn5ccnn5)C4)c(F)c3[nH]2)CC1 [Example I-583]	–	> 100000 nM
CN(C)C(=O)c1cc2cc(C3=CCCN(C(=O)CCc4nncc5ccccc45)C3)ccc2o1 [Example I-168]	–	10000 to 100000 nM
CN(C)C(=O)c1cc2ccc(C3=CCCN(C(=O)[C@H]4Cc5ccccc5CN4)C3)cc2[nH]1 [Example I-59]	–	10000 to 100000 nM
CCc1nc(C)ccc1-c1cc(C(=O)N2CCN(c3ncc(F)cc3OC)CC2)cc2cc(C3=CCCN(C(=O)CCn4cccn4)C3)n(CC3CC3)c12 [Example I-522]	–	< 100 nM
COc1ccccc1-c1cc(C2=CCCN(C(=O)CCn3ccnn3)C2)c(F)c2[nH]c(C(=O)N3CCN(c4ncccc4OC(C)C)CC3)cc12 [Example I-332]	–	< 100 nM
COc1cc(N(C)C)ccc1-c1cc(C2=CCCN(C(=O)CCn3ccnn3)C2)c(F)c2[nH]c(C(=O)N3CCN(c4ncccc4OC4CC4)CC3)cc12 [Example I-609]	–	< 100 nM
CCc1ccccc1-c1cc(C2=CCCN(C(=O)CCn3ccnn3)C2)c(F)c2[nH]c(C(=O)N3Cc4cnn(C)c4C3)cc12 [Example I-700]	–	10000 to 100000 nM
COc1cc(F)cnc1N1CCN(C(=O)c2cc3c(-c4cccc5cnccc45)cc(C4=CCCN(C(=O)CCn5ccnn5)C4)c(F)c3[nH]2)CC1 [Example I-1119]	–	< 100 nM

Structure (SMILES)	IC50 (30 minutes room temperature)	IC50 (30 minutes at room temperature)
O=C(CCn1ccnn1)N1CCC=C(c2ccc3cc(-c4ccccn4)oc3c2)C1 [Example I-1681]	1000 to 10000 nM	–
Cc1c[nH]c2ncc(-c3cc(C4=CCCN(C(=O)CCn5ccnn5)C4)c(F)c4[nH]c(C(=O)N(C)C)cc34)cc12 [Example I-1101]	–	< 100 nM
COc1ccccc1-c1cc(C2=CCCN(C(=O)CCn3ccnn3)C2)c(F)c2[nH]c(C(=O)N3CCN(c4ncnc5[nH]cnc45)CC3)cc12 [Example I-946]	–	< 100 nM
CC1CCCN(C(=O)c2cc3ccc(C4=CCCN(C(=O)CCn5ccnn5)C4)cc3[nH]2)C1 (centres unmarked) [Example I-127]	–	100 to 1000 nM
C=C(C)c1cc(C2=CCCN(C(=O)CCn3ccnn3)C2)c(F)c2[nH]c(C(=O)N3CCN(c4ncc(F)cc4OC)CC3)cc12 [Example I-675]	–	< 100 nM
Cc1ccccc1OCc1ccccc1C(=O)N1CCC=C(c2ccc3cc(C(=O)N(C)C)[nH]c3c2)C1 [Example I-106]	–	1000 to 10000 nM
CC(=O)Nc1ccc2c(ccn2C2CCCN(C(=O)CCn3ccnn3)C2)c1 (centres unmarked) [Example I-1308]	10000 to 100000 nM	–
CCOC(=O)c1ccc(N2CCN(C(=O)c3cc4c(-c5ccccc5OC)cc(C5=CCCN(C(=O)CCn6ccnn6)C5)c(F)c4[nH]3)CC2)cc1 [Example I-931]	–	100 to 1000 nM
COc1ccccc1-c1cc(C2=CCCN(C(=O)CCn3ccnn3)C2)c(F)c2[nH]c(C(=O)N3CCN(c4cc(F)c5ncccc5c4)CC3)cc12 [Example I-953]	–	< 100 nM
CN(C)C(=O)c1cc2cc(C3=CCCN(C(=O)CCn4ccnn4)C3)cc(-c3ccc4[nH]ncc4c3)c2o1 [Example I-1080]	–	< 100 nM
O=C(CCn1ccnn1)N1CCC=C(c2ccc3oc(C(=O)N4CCCCC4)cc3c2)C1 [Example I-128]	–	100 to 1000 nM
CN(C)C(=O)c1cc2cc(C3=CCCN(C(=O)C(Cn4ccnn4)c4cccc(CO)c4)C3)ccc2o1 (centres unmarked) [Example I-832]	–	1000 to 10000 nM
COc1ccc(-c2cc(C3=CCCN(C(C)=O)C3)c(F)c3[nH]c(C(=O)N(C)C)cc23)c(C#N)c1 [Example I-1494]	100 to 1000 nM	–
CN(C)C(=O)c1cc2cc(C3=CCCN(C(=O)CCn4ccnc4)C3)ccc2o1 [Example I-310]	–	1000 to 10000 nM
COc1ccccc1-c1cc(C2=CCCN(C(=O)CCn3ccnn3)C2)c(F)c2[nH]c(C(=O)N3CCN(c4nc(C)nc5ccccc45)CC3)cc12 [Example I-923]	–	< 100 nM
CN(C)C(=O)c1cc2cc(C3=CCCN(C(=O)CCc4ccc5c(c4)OCCO5)C3)ccc2o1 [Example I-280]	–	10000 to 100000 nM
CN(C)C(=O)c1cc2cc(C3=CCCN(C(=O)CCn4ccnn4)C3)cc(N3CCC(O)(c4ccc(F)cc4)CC3)c2o1 [Example I-1511]	< 100 nM	–
C#CCOC1CCN(C(=O)c2cc3c(-c4ccccc4OC)cc(C4=CCCN(C(=O)CCn5ccnn5)C4)c(F)c3[nH]2)CC1 [Example I-1001]	–	< 100 nM
